# Assay results: the supplement of paper PMC12217912
# The list shows a part of the results. The full chains were built here from the parent and the listed change. Inactive controls read about 0.05.
# B1: TEV protease; numbered along this chain (parent)
# chain: MGESLFKGPRDYNPISSSICHLTNESDGHTTSLYGIGFGPFIITNKHLFRRNNGTLVVQSLHGVFKVKDTTTLQQHLVDGRDMIIIRMPKDFPPFPQKLKFREPQREERICLVTTNFQTKSMSSMVSDTSCTFPSGDGIFWKHWIQTKDGQCGSPLVSTRDGFIVGIHSASNFTNTNNYFTSVPKNFMELLTNQEAQQWVSGWRLNADSVLWGGHKVFMVKPEEPFQPVKEATQL
# Variants of: B1
# Assay: raw area under fraction-flipped curve 0-4 h after induction (AUC4h, not background-subtracted), DNA-recorder readout of cleavage of the substrate (dimensionless); higher = more cleavage of the substrate by the protease variant
# Conditions: temperature: 34 °C; time window: 0-4 h after rhamnose induction
# Protocol: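 In vivo DNA recorder in E. coli TOP10(DE3) ΔrhaA at 34 °C. Each TEVp single-site mutant (parent TEVp 0) is paired with a single-site variant of the 7-mer TEVs (canonical ENLYFQ|S). The substrate sits between flexible linkers in a Bxb1-sfGFP-TEVs-SsrA fusion, so cleavage stabilises Bxb1 and speeds flipping of a recombination array, read by NGS. The value is the raw area under the fraction-flipped curve over 0-4 h after rhamnose induction (AUC4h), with ≥20 reads per time point. It is not background-subtracted; inactive controls average about 0.047.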
# 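Also: Bxb1 expression induced with 0.2% (w/v) L-rhamnose at OD600 near 0.5, cultures sampled hourly, flipped fraction per protease–substrate barcode pair counted by paired-end Illumina sequencing.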
Variant,area with substrate ENAYFQS,area with substrate ENCYFQS,area with substrate ENDYFQS,area with substrate ENGYFQS,area with substrate ENHYFQS,area with substrate ENKYFQS,area with substrate ENMYFQS,area with substrate ENNYFQS,area with substrate ENQYFQS,area with substrate ENRYFQS,area with substrate ENSYFQS,area with substrate ENTYFQS,area with substrate ENVYFQS,area with substrate ENWYFQS,area with substrate ENYYFQS,area with substrate ENEYFQS,area with substrate ENPYFQS,area with substrate ENFYFQS,area with substrate ENIYFQS
C20H,0.0424,0.0486,0.043,0.0457,0.0663,0.0466,0.062,0.0582,0.0445,0.0779,0.0438,0.0422,0.0383,0.0369,0.0465,,,,
I85V,0.0572,0.0557,0.0581,0.0652,,0.0647,,,0.067,0.0581,0.0695,,0.0596,0.0467,0.0501,0.0572,0.0749,,
T119H,0.0655,,0.0502,,0.0391,,,0.0574,0.0491,,0.0552,0.0468,,,,,0.0343,0.0538,0.101
E3S,0.0522,0.0672,0.0412,0.046,0.0574,0.039,0.0888,0.0716,0.0494,0.0545,0.0602,0.0646,0.0861,,0.0674,0.0738,,,
S121V,0.0709,0.0638,0.0504,0.0533,0.0511,0.0619,0.0879,,0.0633,,0.135,0.0628,0.058,,,,0.0589,0.0585,
S169R,0.0599,0.057,0.0634,,0.0687,,,0.0677,0.0536,0.0527,0.0584,0.0609,,0.063,0.0625,0.0664,0.0588,,0.065
M122L,0.0599,0.0646,,,,0.058,0.0606,0.0645,0.0587,0.0516,0.0583,0.0616,0.0795,0.0072,0.0501,0.0628,0.0551,0.053,
G2E,0.063,0.0691,0.0608,0.0514,,0.0623,,0.0492,0.0488,0.0541,0.0613,,0.0881,,0.0602,0.0095,0.0495,,
G28N,0.0586,0.0603,0.0475,,0.0614,0.0751,,0.0669,0.0443,0.0793,0.0596,,0.0778,,0.0515,,0.0526,,
G28A,0.0521,0.0521,0.0576,0.0624,0.0492,0.0524,0.0541,0.0618,0.0525,0.0667,0.0846,,0.0683,,0.0563,0.0578,0.0538,0.0592,
G28W,0.0537,0.0605,0.0583,0.0537,0.0597,0.0713,0.0557,0.053,0.0569,0.0522,0.0571,0.0657,0.0744,0.019,0.0561,,0.0675,0.0467,0.0739
G28R,0.0744,,0.066,,0.0628,0.0614,0.0798,0.0422,0.0604,0.0717,0.0579,0.071,0.0767,0.0515,,0.0449,,0.052,0.104
T176W,0.0605,,0.0313,,0.0673,,,0.0766,0.0689,0.0263,0.0541,0.0599,,,,,0.0318,,0.0603
K46H,0.0609,0.0599,,0.0657,,0.0632,0.0487,0.0541,0.0607,,0.0584,0.0474,0.0667,0.06,,0.0639,0.0489,,0.0567
S127A,0.0715,0.0619,0.0645,0.0742,0.0446,0.0467,0.12,0.0604,0.0681,,0.117,0.0616,0.0788,0.0488,0.0452,0.062,,0.0621,0.125
P222Q,0.0609,0.0696,0.0809,0.0666,0.0655,0.0628,0.0827,,0.0569,0.0619,0.0612,0.0598,0.0748,0.0508,,0.055,0.0596,0.0581,0.11
Y34F,0.0547,0.0539,0.0723,,0.0588,0.0052,,0.0584,0.067,0.081,0.056,0.0717,0.0802,0.0529,0.0651,0.0509,,,0.094
T114Q,0.0581,0.0668,0.0649,,0.0576,0.0759,0.111,0.0614,0.0707,0.0646,0.0649,0.0798,0.0969,,0.0757,0.0623,0.0531,0.0647,
H47I,0.0384,0.0581,0.0614,0.0566,,,0.0616,0.069,0.0557,0.0602,0.0669,0.0444,0.0524,,,0.0675,,0.0586,0.0551
S18I,0.061,0.0472,0.0637,,0.0548,,0.0794,0.0441,0.0553,,0.0557,0.0554,0.0627,0,0.0593,0.0551,0.0514,0.0636,0.108
K230L,0.0702,0.0398,0.0825,,,0.0605,0.0648,0.0428,0.0688,0.0636,0.0563,0.073,,0.007,,0.0656,,,0.0949
N53T,0.0616,0.062,0.0584,0.0765,,,0.0638,,0.052,0.0685,0.051,0.0703,0.0647,,0.0663,0.0634,,0.0349,0.0834
Q151I,0.0588,0.0767,0.0691,0.0597,0.0603,0.0629,0.0565,0.0605,0.051,,0.0548,0.0563,0.0665,0.0113,0.0584,0.06,0.0514,0.0603,
T44C,0.0574,0.0684,0.0623,0.0675,0.067,0.0643,,0.0543,0.0592,0.108,0.063,0.062,0.085,,0.0634,0.0595,,0.0667,0.0755
